In all, about 310,000 compounds went through this assay and about 14,000 (4.5%) showed an effect of 50% or more. The effect is printed as a negative number. Some of the results follow.
target: human ether-à-go-go-related gene (hERG) potassium channel (human, UniProt Q12809); experiment: primary screen, population patch clamp on CHO cells stably expressing hERG
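Further: peak tail current of the secondary pulse compared with the same well before compound.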

Sequence of human ether-à-go-go-related gene (hERG) potassium channel (Q12809 whole entry, looked up): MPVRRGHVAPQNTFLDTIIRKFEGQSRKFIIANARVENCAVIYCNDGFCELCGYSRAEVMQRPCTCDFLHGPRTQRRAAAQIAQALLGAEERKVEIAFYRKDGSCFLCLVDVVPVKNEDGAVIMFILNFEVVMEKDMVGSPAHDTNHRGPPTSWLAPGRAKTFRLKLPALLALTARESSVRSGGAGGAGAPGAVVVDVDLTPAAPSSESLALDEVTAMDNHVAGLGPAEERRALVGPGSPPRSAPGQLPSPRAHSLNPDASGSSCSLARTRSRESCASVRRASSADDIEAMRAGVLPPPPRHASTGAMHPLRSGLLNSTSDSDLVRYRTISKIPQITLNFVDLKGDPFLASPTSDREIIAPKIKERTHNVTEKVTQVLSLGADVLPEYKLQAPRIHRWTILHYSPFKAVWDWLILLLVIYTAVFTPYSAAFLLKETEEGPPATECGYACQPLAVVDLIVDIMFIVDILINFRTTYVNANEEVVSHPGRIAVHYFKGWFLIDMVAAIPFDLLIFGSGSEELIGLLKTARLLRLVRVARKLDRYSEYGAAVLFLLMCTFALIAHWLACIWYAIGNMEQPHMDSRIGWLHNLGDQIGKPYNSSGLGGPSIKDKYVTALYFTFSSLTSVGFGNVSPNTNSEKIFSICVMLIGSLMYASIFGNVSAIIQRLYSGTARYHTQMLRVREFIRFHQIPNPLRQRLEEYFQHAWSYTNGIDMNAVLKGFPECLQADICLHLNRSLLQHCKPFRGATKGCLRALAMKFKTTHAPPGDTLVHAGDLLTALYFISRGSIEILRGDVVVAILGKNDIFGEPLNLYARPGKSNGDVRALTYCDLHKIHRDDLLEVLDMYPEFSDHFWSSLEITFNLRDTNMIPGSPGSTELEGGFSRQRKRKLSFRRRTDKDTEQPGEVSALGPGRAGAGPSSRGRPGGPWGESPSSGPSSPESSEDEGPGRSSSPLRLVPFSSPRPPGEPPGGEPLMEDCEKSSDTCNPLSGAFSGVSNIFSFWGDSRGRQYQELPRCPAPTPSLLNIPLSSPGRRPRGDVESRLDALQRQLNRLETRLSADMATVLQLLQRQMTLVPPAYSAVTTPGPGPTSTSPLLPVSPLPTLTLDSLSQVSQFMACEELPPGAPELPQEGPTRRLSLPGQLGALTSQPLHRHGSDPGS

Row | SMILES | hERG current change (%, negative = inhibition) at 10uM [%]
1 | CCc1nnc(NC(=O)c2cc(OC)c(OC)cc2[N+](=O)[O-])s1 | 7.26
2 | CCC(=O)c1ccc(OCC(O)Cn2nc(C)c(Br)c2C)cc1 (centres unmarked) | -97.8
3 | CC(NC(=O)COC(=O)CCc1ccccc1)c1ccccc1 (centres unmarked) | 9.28
4 | COc1ccc(-c2cccc(NC(=O)COc3ccc(Cl)cc3)c2)nn1 | -0.165
5 | O=C(c1cccc(N2CCNC2=O)c1)N1CCCC(Nc2cccc(F)c2)C1 (centres unmarked) | 3.28
6 | Cc1cc(CNC(=O)C(C)n2nc(C)c([N+](=O)[O-])c2C)c2ccccc2n1 (centres unmarked) | 4.89
7 | Cc1cc(C(=O)CS(=O)(=O)c2ccc(F)cc2)cc(C)c1OC(=O)N(C)C | -8.56
8 | CC(=O)N1CC(C)Oc2ccc(S(=O)(=O)NC(CC(=O)O)c3cc(C)ccc3C)cc21 (centres unmarked) | 18
9 | c1ccc(-n2ncc3c(NCc4ccco4)ncnc32)cc1 | -15
10 | CCOc1ccc(NS(=O)(=O)c2cnc(Cl)c(Cl)c2)cc1 | -12.6
11 | Cl.Clc1ccccc1CSC1=NCCN1 | -3.32
12 | CCCCn1c(-c2ccoc2C)n[nH]c1=S | 12.6
13 | Cc1onc(-c2c(F)cccc2Cl)c1C(=O)c1ccccc1 | -1.39
14 | COc1ccc(C(=O)CSc2nnc(CNC(=O)c3ccco3)n2C)cc1OC | 17
15 | COC(=O)C(CO)Nc1ncnc2onc(-c3ccc(F)cc3)c12 (centres unmarked) | 14.2
16 | O=c1c2ccccc2nc(-c2cccc(Cl)c2)n1O | 7.43
17 | Fc1ccccc1N1CCN(c2nc3ccccc3n3nnnc23)CC1 | 4.29
18 | COc1ccc(C2=NN(C(=O)c3ccccc3C(=O)O)C(c3ccccc3O)C2)cc1 (centres unmarked) | -0.273
19 | O=C(CSc1nc2ccccc2c(=O)n1NC(=O)Cc1ccccc1)NCc1ccccc1Cl | -19.5
20 | NC(=O)N/N=C/c1c(Sc2nnnn2-c2ccccc2)nc2ccccn2c1=O | -21.2
21 | Brc1ccc(-c2csc(-c3c[nH]c4ccccc34)n2)cc1 | 15.1
22 | CC1(C)Cc2c(C#N)c(N3CCCC3)nc(-c3ccco3)c2CO1 | 5.08

Row | SMILES | hERG current change (%, negative = inhibition) at 10uM [%]
23 | COP(=O)(c1ccc(N(C)C)cc1)C(O)c1ccccc1 (centres unmarked) | 5.46
24 | O=C(CCS(=O)(=O)Cc1ccc(Cl)cc1)NCCCN1CCOCC1 | -8.33
25 | CN1CCN(S(=O)(=O)c2ccc(NC(=S)NC(=O)C3CCCC3)cc2)CC1 | 9.58
26 | O=S(=O)(Nc1ncccn1)c1ccc(NC(=S)Nc2ccccc2Cl)cc1 | 19.7
27 | Cc1ccc(S(N)(=O)=O)c(C)c1N1CCCC1=O | 22.9
28 | O=C1OC(/C(=C\Nc2cc(Cl)ccc2O)[N+](=O)[O-])c2ccccc21 (centres unmarked) | -0.699
29 | CC(C)(C)[C@@H]1C=C(C(=O)Nc2ccccc2)O[C@H](OCc2ccc(CO)cc2)C1 | 11.9
30 | CCOC(=O)c1cccc(NC(=O)CSc2nnc(COc3ccccc3C)o2)c1 | 4.78
31 | O=C(O)/C=C/C(=O)NC1CCS(=O)(=O)C1 (centres unmarked) | 5.77
32 | CC(NC(=S)Nc1ccccc1Cl)C(c1cccs1)N1CCCC1 (centres unmarked) | -10.2
33 | Br.O=C(CN1CCCCC1)c1ccccc1F | 24
34 | Cc1cc(C2C(C#N)=C(N)OC3=C2C(=O)CC(C)(C)C3)c(C)s1 (centres unmarked) | -25.3
35 | CSc1cccc(CN2CCC(CCC(=O)NC3CC3)CC2)c1 | -62.6
36 | Cc1ccc2cc(/C=C/C(=O)c3ccco3)c(Cl)nc2c1 | 15.2
37 | Cc1cc(NS(=O)(=O)c2ccc(NC(=O)c3cccnc3)cc2)nc(C)n1 | 8.95
38 | COc1ccc(CCNC(=O)CSc2nc(C)nc3c2oc2ccccc23)cc1OC | -9.54
39 | O=C(COC(=O)c1ccc[nH]c1=O)c1ccc(Cl)s1 | 17.8
40 | Cc1nnc(SCC(=O)N/N=C/c2cn(-c3ccccc3)nc2-c2ccccc2)n1-c1ccccc1 | -2.56
41 | COc1ccc(CC(=O)N2CCN(c3ccc(F)cc3)CC2)cc1 | 1.52
42 | CCC(C)[C@H](NC(=O)Nc1ccc2c(c1)OCCO2)C(=O)OC (some centres unmarked) | 15.4
43 | COc1ccc(OC)c(CN2CCN(Cc3cccc4ccccc34)CC2)c1.O=C(O)C(=O)O | -65.2
44 | Cc1oc2nc(SCCCC(=O)NCCO)nc(N)c2c1C | 2.88
